Reference: paper PMC6212790
Some of the results follow. At the low end of the ranking the order means little.

These sequences were tested against T1, GST-Rok-C97-191 (UniProt O34857) (assay: protein binding microarray). Conditions: Rok is a gene silencer of Bacillus subtilis; high values mean tight binding; most listed sequences are background and not binding sites; double strand, one strand shown.
T1 sequence: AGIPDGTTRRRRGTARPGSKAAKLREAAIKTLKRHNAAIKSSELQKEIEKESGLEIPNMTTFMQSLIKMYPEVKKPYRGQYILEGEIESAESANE
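Further: rank score from −0.5 (least bound) to 0.5 (best bound).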

Sequence	binding signal [E-score]
TACTCTAA	0.0401
AAATGCTT	-0.000293
GAATTGCC	0.0281
GGGGCAAA	-0.128
GCTTCGCA	-0.148
GATCTACC	0.35
ACCCAAGA	-0.0224
GAAACGTC	-0.392
TCAAGGCA	-0.0684
CCAGCGCG	-0.147
GCGTTCCC	-0.0567
AAAGGAAG	-0.134
GATTGCAA	0.139
CGTTCCCA	-0.189
AATGTATG	0.309
AGCAATGA	-0.189
CGCCTCCG	-0.335
AAACCTCC	-0.149
ACTCACCG	-0.00926
GCAGCGGC	-0.386
CGTAAGAC	-0.0605
GAAGTCAA	-0.0412
GAATCGAC	-0.0587
GTGTGAAA	-0.11
AGTACCGC	-0.121

Sequence	binding signal [E-score]
AATGTTCT	0.115
AGTTGAAT	0.114
AAATTGTT	0.264
GTTAATCA	-0.00641
GGCGTATA	0.125
GCCTTCGC	-0.0744
CTTGAAAC	-0.146
CTGGTAGA	0.324
CCCTGCTA	-0.179
AAGAAAGA	0.0949
CCGTAACA	0.155
ACCCGTAA	0.00435
TGGCTTAA	-0.0768
CGAGCTCA	-0.166
CTGGGCTC	-0.298
ACCAGATC	-0.156
ACTATCGA	0.348
ATATGAAG	0.167
CTATGCAA	0.132
GCCGACCC	-0.315
GAAGTGAC	0.0733
GGTCGGTA	-0.244
TAAGAGGA	-0.145
CGACACAG	-0.0667
CCAGTATA	0.143

Sequence	binding signal [E-score]
GCCCAGGA	-0.208
ACCTAAAA	0.295
GGGAGTCA	-0.148
AGCACTGA	-0.162
CACTACAG	-0.165
ATTGGTAA	0.258
AAGTTCAA	0.137
CTGAGCAC	-0.128
AAGGTGTA	0.179
TCACAGAA	0.0216
AGATTATA	0.253
AGTACTCC	0.00355
GTTTGGGA	0.0143
CCGCGAAA	0.0383
CAGCCAAC	-0.0467
AGATCGGA	0.00178
CATGAATC	0.13
ACGTATTA	0.185
CCACATAC	0.16
CGTTCTCC	-0.321
ACTGATCT	-0.0994
AGGAGCAG	-0.274
ATTAGCGG	0.263
ACTAGACC	0.0212
TATGCAGA	0.151

Sequence	binding signal [E-score]
AGTTAGAC	0.109
ACCAGGCC	-0.215
AAACAGAG	0.00841
AGTTGGCC	0.0352
ACCACAGC	-0.0796
ACCGCGCA	-0.212
ACCCGACG	-0.264
ACCCCCCG	-0.344
ATTTGTCA	0.191
TAATACTA	0.401
ACACAAAA	0.109
GGGGAATA	0.0422
GCTGTCTA	-0.142
CTTCGGTC	-0.106
ACAAACAA	-0.0928
AGGGACAG	0.00525
ACTAGGTG	0.242
ATCTTAAT	0.148
AGACTAAA	0.0407
CTGTACAG	-0.0808
ACGAACCA	-0.0855
ACTCACTC	-0.0235
CGTCCCTC	-0.405
AATGTGAT	0.149
GACTCTGA	-0.12

Sequence	binding signal [E-score]
AAAAGAAT	0.157
ACGGCCAA	-0.00204
CCAAGGAC	-0.176
CAAGGGAC	-0.0666
CGTGTAAG	0.00614
GCCATTCA	0.0838
AATGATGT	0.146
ATGCGTCA	-0.1
CTGGGCGA	-0.263
CGCACTAA	0.255
CCGTTAGG	-0.335
AACTCGAC	-0.0777
AGTGAGAT	-0.014
AAGTGCGG	0.009
CCCGCCCC	-0.318
ATACCTTA	0.0226
AGGACCCA	-0.179
CGAGTCCC	-0.169
ACTCGCGC	0.0683
ACGACCGG	0.0208
AAAGGGTG	-0.259
AGCTTTTA	0.21
TGGGTTAA	0.109
GCGCACCC	-0.185
CGCTATTC	-0.0121

Sequence	binding signal [E-score]
GAACACCC	-0.172
CCGAGAAG	-0.0311
GTAGCATA	0.15
AGCACGCT	-0.216
ACAATTAA	0.158
CATTGGGC	0.00461
GAGTGTTA	-0.0461
GATCAGCA	-0.0559
GATCTTAA	0.231
CTAGGCGC	-0.195
ATGTGAGA	0.0428
GTGTGGGA	-0.0368
AGGTTGTA	0.303
AACGCGTG	0.00572
GACCCTAA	-0.223
CTACACCC	0.0821
AGGTACGC	-0.246
CTCAAATA	-0.146
CTCTCACC	-0.313
CCATGGTA	0.22
CGGATTGC	-0.185
ATCGAAAA	0.0636
CTAGCTCA	0.117
CTAGGCGA	-0.0333
GAGGACCA	-0.255

Sequence	binding signal [E-score]
TGCGCTAA	-0.0024
CCGGATTC	0.0415
CGACAGTC	-0.0879
GCAGCAAC	-0.161
GCAGTAGA	0.287
ACGAACTG	0.0417
CAACAGAG	-0.0332
AACCGCCC	-0.268
CACGGTCC	-0.359
CGACTCAC	-0.189
CAACTCAA	0.0366
CGCGCGTC	-0.236
ACTGCAGC	-0.0882
AGGGCTTA	-0.106
CGGTTACA	-0.149
ACGTACTC	0.0226
GGGCGCGA	-0.262
CGCGTACC	-0.0539
GCATATGC	0.063
ACGAGTAT	0.2
TCCGCAGA	-0.0682
CTTCAGGA	0.0175
CTTATGAA	0.127
AACGCCAA	-0.0358
ATTCATCC	-0.104

Sequence	binding signal [E-score]
CACCAACG	-0.0804
AACACGTA	-0.0194
ATTGAAAA	-0.122
AACTGTAG	0.27
AGGTGCCC	-0.242
ACGAAATC	0.0634
AATTAATC	0.24
AGCAACGG	0.18
ATCCATCA	-0.177
AGAAAACG	-0.0426
ACGAGGAC	-0.298
GCCAACAA	-0.106
CGAACCAG	-0.14
GCCACTCA	-0.165
GCTCCTGA	-0.152
GCGGGAAA	-0.137
ACTGGGAT	0.095
CAGCATGG	-0.227
ACCAGGCT	-0.11
GGGGGAAC	-0.126
CACCACTG	-0.257
AGTTCCGG	0.103
AAAAGGGC	-0.186
ACCTCGTG	-0.0186
AGAAGCGA	-0.104

Sequence	binding signal [E-score]
CAGACCAA	-0.177
ATAGTGGC	0.0849
ATTGGCGC	-0.0813
CGGGATGC	-0.0981
AACGTCTC	-0.114
TCCGGAGA	-0.0285
AGGCCCGG	-0.36
TGACACAA	-0.102
ATCAAAAC	0.0221
ACAGGAAG	-0.112
AGAGTGAG	-0.159
CCCTGTGA	-0.371
AATTACAA	0.251
GTACACAA	0.235
TGATTGCA	0.0542
ATTACCAG	0.222
GCCATCAA	-0.133
GTTCCTTA	-0.125
GTAGGAAA	0.255
